“And” between values parts separate entries of the source, which are not always exact repeats. Equal values may be shown once. In all, about 420,000 compounds went through this assay and about 50,000 (12%) were called active. The shares of active, inactive and inconclusive entries below differ from those in the screen. Calls come from the whole dose curve; as a rule, active = well fitted inhibition curve with a large enough effect; inconclusive = small, poorly fitted or top-dose-only effect; inactive = flat fitted curve, though single readings scatter. No potency is given beside an inconclusive call; the fits are too rough.
Test: qHTS for Inhibitors of human tyrosyl-DNA phosphodiesterase 1 (TDP1): qHTS in cells in presence of CPT; note: nearly all actives have a fitted effect of over 55% in size
Conditions: chicken DT40 Tdp1-/-;hTDP1 cells + 20 nM CPT, ATP luminescence, 48 h; activity change, negative = growth inhibition: at 46.2 µM (top of the series) unless noted
In short: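 Chicken DT40 Tdp1-/- cells complemented with human TDP1, 400 cells/well, exposed to compounds plus 20 nM camptothecin for at least 48 h at 37 C; viability read as ATP content by CellTiter-Glo luminescence.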
% is set by controls: 0 for no effect and ±100 for the full control effect; potency is the fitted concentration of half-maximal effect; tags give direction and shape of the fitted curve.

Question: With O=C1ON=C(c2ccccc2)/C1=C/c1ccco1 as the compound, how does the Potency read?
Answer: inconclusive [inhibitor, single point]

Question: For COc1cc2ncnc(NCc3ccc(C)cc3)c2cc1OC, which Potency is on record?
Answer: inconclusive [inhibitor, single point]

Question: With O=C(CCc1nnc(-c2ccc3c(c2)OCO3)o1)NCCc1ccccc1F as the compound, how does the Potency read?
Answer: active: 16.4 µM

Question: For COc1cccc(NC(=O)c2ccnc(N3CCC(C(=O)NCc4cc(OC)ccc4OC)CC3)c2)c1, which Potency is on record?
Answer: active: 23.1 µM

Question: Which Potency does the source give for CC(C)N(Cc1ccccc1)c1ncnc2c1nnn2C here?
Answer: inconclusive [inhibitor, partial curve, poor fit]

Question: With COc1ccc(S(=O)(=O)Nc2ccc3c(c2)OCO3)cc1OC as the compound, how does the “activity change, negative = growth inhibition” value read?
Answer: inactive: -14.5%

Question: For Cc1cccc(C)c1NC(=S)N1CCCN(Cc2ccc(F)cc2)C1, which “activity change, negative = growth inhibition” value is on record?
Answer: inactive: 0.355%

Question: With CC(C)OCCCn1c(=O)c2ccccc2n2c(CCC(=O)O)nnc12 as the compound, how does the “activity change, negative = growth inhibition” value read?
Answer: inactive: -2.98%

Question: With O=C1CCC(C(=O)N2CCN(c3ccccc3)CC2)CN1CC1CCCCC1 (configuration not stated) as the compound, how does the Potency read?
Answer: inconclusive [inhibitor, single point]

Question: With CCCCN1C(=O)C(CC(=O)NCC2CCCCC2)CC(C(=O)N(C(C)C)C(C)C)=C1C (configuration not stated) as the compound, how does the Potency read?
Answer: inconclusive [inhibitor, single point]

Question: With Nc1cc(C(=O)OCC(=O)Nc2ccc(N3CCOCC3)cc2)ccc1Cl as the compound, how does the “activity change, negative = growth inhibition” value read?
Answer: inactive: 5.12%

Question: With Cc1cccn2c(=O)c(C=O)c(Cl)nc12 as the compound, how does the Potency read?
Answer: active: 2.59 µM

Question: With Cc1cc(N2CCOCC2)nc2ccccc12 as the compound, how does the “activity change, negative = growth inhibition” value read?
Answer: inactive: -1.95%

Question: With CCOCCCNC(=O)CN(c1cc([N+](=O)[O-])ccc1OC)S(C)(=O)=O as the compound, how does the “activity change, negative = growth inhibition” value read?
Answer: inactive: 7.75%

Question: With Cc1ccccc1-c1nc(NCc2cccnc2)c2ccccc2n1 as the compound, how does the Potency read?
Answer: inconclusive [inhibitor, partial curve]

Question: For O=C(NCc1ccc(Cl)s1)C1CCC(=O)N(CCc2ccccn2)C1 (configuration not stated), which “activity change, negative = growth inhibition” value is on record?
Answer: inactive: -16.9%

Question: Which Potency does the source give for COc1ccccc1N1CC(C(=O)NC2CCCCCC2)CC1=O (configuration not stated) here?
Answer: inconclusive [inhibitor, single point]

Question: Which Potency does the source give for CCn1ncc2c(OCc3ccc(C#N)cc3)cc(C)nc21 here?
Answer: inconclusive [inhibitor, single point]

Question: Which “activity change, negative = growth inhibition” value does the source give for CCc1ccc(NC(=O)C(=O)c2cn(CC(=O)N3CCCCC3)c3ccccc23)cc1 here?
Answer: inactive: -25%

Question: Which “activity change, negative = growth inhibition” value does the source give for Cc1ccc(NC(=O)C2C3/C=C\CCCCC32)cc1C (configuration not stated) here?
Answer: inactive: -15.5%

Question: For CCN(Cc1nc2ccccc2c(=O)[nH]1)C(=O)COc1ccccc1Cc1ccccc1, which Potency is on record?
Answer: active: 4.61 µM

Question: With COc1ccc(N2CCN(C(=O)c3ccc4c(c3)NC(=O)C(CSCc3ccccc3F)N4)CC2)cc1 (configuration not stated) as the compound, how does the Potency read?
Answer: inconclusive [inhibitor, single point]

Question: Which “activity change, negative = growth inhibition” value does the source give for O=C(Cn1cc(COc2ccc(Cl)c(Cl)c2)nn1)NS(=O)(=O)c1ccccc1C(F)(F)F here?
Answer: inactive: -10.5%

Question: With Cc1nn(Cc2cccc(C(=O)NC3CCCCC3)c2)c(C)c1Cl as the compound, how does the Potency read?
Answer: inconclusive [inhibitor, single point]

Question: Which Potency does the source give for O=C(c1ccc([N+](=O)[O-])cc1[N+](=O)[O-])N1CCc2ccccc21 here?
Answer: inconclusive [inhibitor, single point]

Question: Which Potency does the source give for COc1ccc(OC)c(CNn2c(-c3ccccc3F)nc3ccccc3c2=O)c1 here?
Answer: inconclusive [inhibitor, single point]

Question: With CC(C)(C)C(c1nc2ccccc2[nH]1)n1c(-c2cc(Cl)cc(Cl)c2)nc2ccccc21 (configuration not stated) as the compound, how does the Potency read?
Answer: inconclusive [inhibitor, single point]

Question: With CN(C)/C=C/C(=C\C(=O)C(F)(F)F)Nc1ccc(C(F)(F)F)cc1 as the compound, how does the Potency read?
Answer: inconclusive [inhibitor, single point]

Question: For CCCCNC(=O)C1(C)CCCCN1C(=O)c1ccc(F)c(C)c1 (configuration not stated), which Potency is on record?
Answer: inconclusive [inhibitor, single point]

Question: With CCCC(c1nnnn1C(C)(C)C)N1CCN(Cc2ccccc2)CC1 (configuration not stated) as the compound, how does the “activity change, negative = growth inhibition” value read?
Answer: inactive: -9.45%

Question: Which Potency does the source give for CCCCN1C(=O)NC(c2ccc(OC)cc2)C(C(=O)OCc2ccccc2)=C1C (configuration not stated) here?
Answer: inconclusive [inhibitor, single point]

Question: With CC(SC1=NCCN1S(C)(=O)=O)c1ccccc1 (configuration not stated) as the compound, how does the “activity change, negative = growth inhibition” value read?
Answer: inactive: -10.5%

Question: With Cc1ccc(-n2nnnc2/C=C\Nc2cc(C)on2)cc1 as the compound, how does the Potency read?
Answer: inconclusive [inhibitor, partial curve, poor fit]

Question: With O=C(COC(=O)/C=C/c1ccc(S(=O)(=O)N2CCOCC2)cc1)NC1CCCCCCC1 as the compound, how does the “activity change, negative = growth inhibition” value read?
Answer: inactive: -8.03%

Question: Which “activity change, negative = growth inhibition” value does the source give for CCN(C(=O)CN1CCN(c2ccccc2F)CC1)c1c(N)n(Cc2ccccc2)c(=O)[nH]c1=O here?
Answer: inactive: 0.264%

Question: For COc1ccc(-c2n[nH]c3c2CN(C(=O)c2ccccc2)CC3)cc1, which Potency is on record?
Answer: inconclusive [inhibitor, partial curve]

Question: For Cc1ccc(N(C(=O)COc2ccccc2C)S(=O)(=O)c2ccc(Cl)cc2)cc1, which Potency is on record?
Answer: inconclusive [inhibitor, single point]

Question: Which “activity change, negative = growth inhibition” value does the source give for Cc1cc(C)c2oc(C(=O)Nc3sc4c(c3C(=O)NCc3ccco3)CCCC4)cc(=O)c2c1 here?
Answer: inactive: 5.88%

Question: For Cc1cccn2c(=O)c(/C=C(\C#N)C(N)=O)c(N3CCCCCC3)nc12, which Potency is on record?
Answer: inconclusive [inhibitor, single point]

Question: With COc1ccc(/C=C\c2onc(C)c2S(=O)(=O)N2CCC(C(=O)NCCC(C)C)CC2)cc1 as the compound, how does the Potency read?
Answer: inconclusive [inhibitor, single point]

Question: For CN1CCc2ccccc2C1Cc1ccccc1NC(=O)c1sc2ccccc2c1Cl (configuration not stated), which Potency is on record?
Answer: inconclusive [inhibitor, single point]

Question: Which “activity change, negative = growth inhibition” value does the source give for COc1ccc(N2C(=O)CSC2c2ccccc2[N+](=O)[O-])cc1 (configuration not stated) here?
Answer: inactive: 5.23%

Question: With C=CCn1c(SCC(=O)c2ccc(O)c(O)c2)nnc1-c1cccc(OC)c1 as the compound, how does the Potency read?
Answer: active: 14.6 µM

Question: With Cc1c(N=Nc2c(-c3ccc([N+](=O)[O-])cc3)[nH]n(C(N)=S)c2=O)cccc1[N+](=O)[O-] as the compound, how does the Potency read?
Answer: active: 2.91 µM

Question: With Cc1ccc(NC(=O)c2cccc(N3CCCS3(=O)=O)c2)cc1 as the compound, how does the Potency read?
Answer: inconclusive [inhibitor, partial curve]

Question: Which “activity change, negative = growth inhibition” value does the source give for Cc1ccc(S(=O)(=O)N2CCOCC2)cc1-c1n[nH]c(=S)n1-c1ccccc1 here?
Answer: inactive: -23.4%

Question: Which Potency does the source give for O=C(CCn1c(=O)c2cccn2c2cccnc21)NCc1cccc(Cl)c1 here?
Answer: inconclusive [inhibitor, single point]

Question: Which Potency does the source give for Cc1cccc2sc(NC(=O)c3cc(S(=O)(=O)N(C)C)ccc3N3CCCC3)nc12 here?
Answer: inconclusive [inhibitor, single point]

Question: For O=S(=O)(NCCN1CCOCC1)c1ccc(F)c(Cl)c1, which Potency is on record?
Answer: active: 18.4 µM

Question: With CC(CN1CCOCC1)OC(=O)C(C)(c1ccccc1)c1ccccc1 (configuration not stated) as the compound, how does the Potency read?
Answer: inconclusive [inhibitor, single point]

Question: For COc1ccc(NC(=O)c2cccc3c(-c4ccc(O)c(OC)c4)coc23)cc1, which Potency is on record?
Answer: inconclusive [inhibitor, single point]

Question: For COc1cc2ncc(-c3ccccc3)nc2cc1OC, which Potency is on record?
Answer: active: 35.5 µM and active: 20.6 µM

Question: Which Potency does the source give for CNS(=O)(=O)c1cccc(C(=O)OCC(=O)Nc2ccc(-c3nc4ccc(C)cc4s3)cc2)c1 here?
Answer: inconclusive [inhibitor, partial curve, poor fit]

Question: Which “activity change, negative = growth inhibition” value does the source give for Cc1cc(C)nc(Nc2n[nH]c(COc3ccc4ccccc4c3)n2)n1 here?
Answer: inactive: -11%

Question: With O=C1N=C(c2ccccc2)S/C1=C\c1cccs1 as the compound, how does the “activity change, negative = growth inhibition” value read?
Answer: inactive: -27%

Question: Which Potency does the source give for Cc1c(NC(=O)c2ccc(Cl)cc2)cc(C(C)C)c(O)c1S(=O)(=O)c1ccc(Cl)cc1 here?
Answer: inconclusive [inhibitor, single point]

Question: Which “activity change, negative = growth inhibition” value does the source give for CC(=O)Nc1csc2ccccc12 here?
Answer: inactive: 0.5%

Question: With CCOC(=O)C1CCN(c2nc(N)c3c(N)nc(SCC(=O)O)cc3c2C#N)CC1 as the compound, how does the Potency read?
Answer: inconclusive [inhibitor, single point]

Question: Which “activity change, negative = growth inhibition” value does the source give for CCCS(=O)(=O)NC(=O)C1(C)CCN(C(=O)COc2ccccc2)C1 (configuration not stated) here?
Answer: inactive: 2.55%

Question: Which Potency does the source give for COCOc1cccc(CN2CCC2(C)C(=O)Nc2ccc(OC)c(OC)c2)c1 (configuration not stated) here?
Answer: active: 16.4 µM

Question: For CCOCCCNC(=O)c1ccc(NC(=O)N2CCCCc3ccccc32)cc1, which activity change, negative = growth inhibition is on record?
Answer: inconclusive: -31.6% [inhibitor]

Question: For Cc1ccc(-c2nnc(-c3ccccc3S(=O)(=O)Cc3ccc(Cl)cc3)o2)cc1, which Potency is on record?
Answer: inconclusive [inhibitor, partial curve, poor fit]

Question: With COc1ccc(-c2c(-c3ccc(C#N)cc3)oc(=O)c3cc(OC)c(OC)cc23)cc1 as the compound, how does the Potency read?
Answer: inconclusive [inhibitor, single point]

Question: For COc1ccccc1NC(=O)Cn1c(=O)n(-c2ccc(C)cc2)c(=O)c2ccc(C(=O)NCc3ccco3)cc21, which Potency is on record?
Answer: inconclusive [inhibitor, single point]

Question: With CCN(c1ccccc1)S(=O)(=O)c1cccc(C(=O)OCC(=O)c2c(N)n(C)c(=O)n(C)c2=O)c1 as the compound, how does the Potency read?
Answer: inconclusive [inhibitor, single point]

Question: Which Potency does the source give for Cc1ccc(C(=O)NNC(=S)NC(=O)COc2ccccc2)cc1 here?
Answer: active: 14.6 µM

Question: With CN(CC(=O)Nc1ccc(Cl)c(C(F)(F)F)c1)C(=O)Cc1cccs1 as the compound, how does the Potency read?
Answer: inconclusive [inhibitor, single point]

Question: With O=C(Cc1ccccc1)n1nc(-c2ccccc2)nc1NCc1ccco1 as the compound, how does the “activity change, negative = growth inhibition” value read?
Answer: inactive: 13.9%

Question: Which Potency does the source give for O=C(Nc1ccc(N2CCN(C(=O)c3ccco3)CC2)cc1)c1ccc(F)cc1 here?
Answer: inconclusive [inhibitor, single point]

Question: Which activity change, negative = growth inhibition does the source give for CCn1cc(S(=O)(=O)CC(=O)Nc2ccc3c(c2)OCCO3)c2ccccc21 here?
Answer: inconclusive: -32% [inhibitor]

Question: With OC(c1ccccc1)c1nc(-c2ccc3c(c2)OCO3)cs1 (configuration not stated) as the compound, how does the “activity change, negative = growth inhibition” value read?
Answer: inactive: -23%

Question: With COc1ccc(OC)c2sc(N(CCN(C)C)C(=O)/C=C/c3cccs3)nc12 as the compound, how does the Potency read?
Answer: inconclusive [inhibitor, single point]
